To fix the notation:
B1: PhoQ; a variant is named by its letters at X, in order, P23837 (parent)
chain: MKKLLRLFFPLSLRVRFLLATAAVVLVLSLAYGMVALIGYSVSFDKTTFRLLRGESNLFYTLAKWENNKLHVELPENIDKQSPTMTLIYDENGQLLWAQRDVPWLMKMIQPDWLKSNGFHEIEADVNDTSLLLSGDHSIQQQLQEVREDDDDAEMTHSVAVNVYPATSRMPKLTIVVVDTIPVELKSSYMVWSWFIYVLSANLLLVIPLLWVAAWWSLRPIEALAKEVRELEEHNRELLNPATTRELTSLVRNLNRLLKSERERYDKYRTTLTDLTHSLKTPLXXLQXXLRSLRSEKMSVSDAEPVMLEQISRISQQIGYYLHRASMRGGTLLSRELHPVAPLLDNLTSALNKVYQRKGVNISLDISPEISFVGEQNDFVEVMGNVLDNACKYCLEFVEISARQTDEHLYIVVEDDGPGIPLSKREVIFDRGQRVDTLRPGQGVGLAVAREITEQYEGKIVAGESMLGGARMEVIFGRQHSAPKDE

Our source for the enrichment ratio values is a collection of fitness landscapes (doi:10.1126/science.1257360).

The list shows a part of the results. Where only a bound is given, the exact number is not on record here.

The experiment covers variants of B1. Kind of experiment: enrichment ratio after two sorts for PhoP signalling (ratio (wild type AVST 3.29)); higher = more functional. Conditions: with PhoP (E. coli).
Turning to SRCK, the enrichment ratio is not above 0.25. Under DLCL stands not above 0.25; under TTCV, 17.3. As to FSWQ, the enrichment ratio was not above 0.25. In the case of QQIS, the enrichment ratio is not above 0.25. With PQLY, the enrichment ratio is not above 0.25. For the variant KSIS, the enrichment ratio is not above 0.25. Under TRLA stands not above 0.25. The same measure for IEML: not above 0.25; for VQKY: not above 0.25; for GPCF: not above 0.25. As for VKRN, the enrichment ratio is not above 0.25. For TCAE, the enrichment ratio was not above 0.25. Turning to YTLD, the enrichment ratio is not above 0.25.

Take ACQN: the enrichment ratio is not above 0.25. In the case of GPDM, the enrichment ratio was not above 0.25. In the case of LFYR, the enrichment ratio is not above 0.25. Under LEGS stands not above 0.25; under AMST, 12.2; under HCAR, not above 0.25. In the case of PPCY, the enrichment ratio is not above 0.25. Regarding IHYC, the enrichment ratio is not above 0.25.

In the case of EEYS, the enrichment ratio was not above 0.25. As to WCGS, the enrichment ratio is not above 0.25. Regarding ESNQ, the enrichment ratio is not above 0.25. With LFCF, the enrichment ratio was not above 0.25.

In the case of PNLH, the enrichment ratio is not above 0.25.

In the case of DGQD, the enrichment ratio was not above 0.25. For WTRD, the enrichment ratio is not above 0.25. In the case of RQWH, the enrichment ratio was not above 0.25. The same measure for VTGH: not above 0.25.

Turning to MTPD, the enrichment ratio was not above 0.25. For TVTR, the enrichment ratio worked out at 2.26. With LTPG, the enrichment ratio was not above 0.25. For the variant LEMT, the enrichment ratio worked out at 2.97. On to VMHI, for which the enrichment ratio is not above 0.25. For RILG, the enrichment ratio is not above 0.25. For GEFM, the enrichment ratio amounted to 6.94. Under ASRY stands not above 0.25; under DMPG, not above 0.25. The same measure for SYGP: not above 0.25; for QFNT: not above 0.25. Under KDSQ stands not above 0.25; under TSFQ, 6.93. Take GGGD: the enrichment ratio was not above 0.25. The same measure for FFHP: not above 0.25; for FDSN: not above 0.25. As for NADF, the enrichment ratio is not above 0.25. For SQCF, the enrichment ratio is 11.4. Regarding VDLS, the enrichment ratio is not above 0.25. PGSC: the enrichment ratio is not above 0.25. Under SMWC stands not above 0.25; under KAAI, not above 0.25. As for EFIF, the enrichment ratio is not above 0.25. For SAGH, the enrichment ratio worked out at 5.09. As for KYQC, the enrichment ratio is not above 0.25. The same measure for GGSH: not above 0.25; for DTLE: not above 0.25; for VPWC: not above 0.25.

Take LDFM: the enrichment ratio was not above 0.25. For LSWG, the enrichment ratio was not above 0.25. Consider QKSL, for which the enrichment ratio was 1.35.

LDHF: the enrichment ratio was not above 0.25. Take VGQI: the enrichment ratio was not above 0.25. Take WNNS: the enrichment ratio was not above 0.25. Turning to KNTH, the enrichment ratio was not above 0.25. For the variant KVPC, the enrichment ratio was not above 0.25. Turning to ERVQ, the enrichment ratio is not above 0.25.

On to GCRR, for which the enrichment ratio was not above 0.25. On to HMYG, for which the enrichment ratio is not above 0.25. The same measure for VKYW: not above 0.25; for ILKP: not above 0.25.

KEPH: the enrichment ratio is not above 0.25.

VDQA: the enrichment ratio was not above 0.25. In the case of SGGG, the enrichment ratio was not above 0.25.

With WLHF, the enrichment ratio was not above 0.25. As to YVTV, the enrichment ratio was 0.286. For RMAY, the enrichment ratio is not above 0.25. Consider YLSF, for which the enrichment ratio was found to be 0.291. FRCN: the enrichment ratio was not above 0.25.

TLWA: the enrichment ratio is not above 0.25. Under IWRT stands not above 0.25; under QHHM, not above 0.25; under RVFF, not above 0.25. On to IWND, for which the enrichment ratio was not above 0.25. Turning to VHSV, the enrichment ratio is not above 0.25. For PAIF, the enrichment ratio was not above 0.25.

For the variant ICRS, the enrichment ratio is not above 0.25. Under TTVA stands 3.93; under IVIT, not above 0.25; under NKQR, not above 0.25.

As for YPHF, the enrichment ratio was not above 0.25. KKRA: the enrichment ratio is not above 0.25.

On to RPPQ, for which the enrichment ratio is not above 0.25. Regarding QKNT, the enrichment ratio was not above 0.25.

Take LFAC: the enrichment ratio is not above 0.25. As for FSHM, the enrichment ratio was determined as 0.793. Regarding YTRH, the enrichment ratio was not above 0.25.

On to HSMN, for which the enrichment ratio was not above 0.25.

Consider SREW, for which the enrichment ratio was not above 0.25. Turning to WRFP, the enrichment ratio came out at 1.04. As to MLKW, the enrichment ratio is not above 0.25. On to PFLR, for which the enrichment ratio is not above 0.25. As for RLPP, the enrichment ratio is not above 0.25. Turning to AIIK, the enrichment ratio came to 6.49. As to VVLM, the enrichment ratio was 3.83. Consider WKIS, for which the enrichment ratio was not above 0.25.

In the case of MKPP, the enrichment ratio was not above 0.25.

As for TFYT, the enrichment ratio is not above 0.25. Turning to VCDD, the enrichment ratio is not above 0.25. In the case of AYIF, the enrichment ratio was not above 0.25. As for QQPP, the enrichment ratio is not above 0.25. YRNT: the enrichment ratio was not above 0.25. For the variant HMHG, the enrichment ratio is not above 0.25. NIGD: the enrichment ratio was not above 0.25. For the variant IHFR, the enrichment ratio was not above 0.25. The same measure for SRHC: not above 0.25.

On to MLVS, for which the enrichment ratio is not above 0.25. As for SGQC, the enrichment ratio was determined as 1.76. For the variant IGRK, the enrichment ratio is not above 0.25. Under MTDW stands not above 0.25; under LMVG, not above 0.25; under IKGD, not above 0.25.

Consider SQPW, for which the enrichment ratio is not above 0.25. With FWQP, the enrichment ratio was not above 0.25.

For HRCI, the enrichment ratio is not above 0.25. Under RYIV stands not above 0.25; under APYS, not above 0.25; under VYWM, not above 0.25.

For the variant EAAM, the enrichment ratio was not above 0.25.

For the variant ASPT, the enrichment ratio is not above 0.25.

Take LWNQ: the enrichment ratio is not above 0.25. As for PCCY, the enrichment ratio was not above 0.25. With LLYN, the enrichment ratio was not above 0.25. For the variant YFFT, the enrichment ratio is not above 0.25. With RQCR, the enrichment ratio was not above 0.25.

Consider WEVS, for which the enrichment ratio is not above 0.25. Turning to YWQF, the enrichment ratio is not above 0.25. As for YHYQ, the enrichment ratio was not above 0.25. Turning to HCPI, the enrichment ratio was not above 0.25. Under TCMN stands 58.3; under MTCT, not above 0.25.

In the case of EGCV, the enrichment ratio was not above 0.25. Regarding VEYR, the enrichment ratio is not above 0.25. Regarding RNYT, the enrichment ratio is not above 0.25. The same measure for FDSG: not above 0.25; for PYSF: 0.37.

As to NNFL, the enrichment ratio was not above 0.25. In the case of NKLI, the enrichment ratio is not above 0.25. Regarding HFNL, the enrichment ratio was not above 0.25.

As to VEVE, the enrichment ratio was not above 0.25.

Turning to LVVH, the enrichment ratio was not above 0.25. As to SDNN, the enrichment ratio was not above 0.25.
